Measured values: PubChem BioAssay AID1347073 (National Center for Advancing Translational Sciences (NCATS), 2019)
Out of some 45,000 compounds screened, about 200 (0.44%) were called active. Another 7% or so got no clear call; they are omitted. Calls come from the whole dose curve; as a rule, active = well fitted activation curve with a large enough effect; inconclusive = small, poorly fitted or top-dose-only effect; inactive = no such curve, though single readings can be large or run the other way. The list shows a part of the results.

experiment: qHTS of TDP-43 Inhibitors: NCGC Sytravon Library Screen; conditions: yeast TDP-43 toxicity rescue, BacTiter-Glo growth, 24 h; series mostly up to 46.1 µM; growth rescue (activation): at the top concentration; note: 0% is about no effect; nearly all actives have a fitted effect of over 55% in size
Method in brief: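 TDP-43-expressing yeast, pregrown in raffinose, seeded at OD600 0.02 in galactose medium with compound for 24 hr at 30 deg C. Growth read by BacTiter-Glo luminescence, so rescue of toxicity appears as activation.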

SMILES | growth rescue (activation)
CC1(C(=O)NS(=O)(=O)c2ccccc2)CCN1C(=O)Cc1ccc(Cl)cc1Cl (configuration not stated) | inactive: -2.47%
CC(C)NC(=O)c1cc(C2CCCCN2C(=O)OCCF)on1 (configuration not stated) | inactive: 8.34%
Cn1c(SCC(=O)NC2CCCCC2)nnc1-c1ccccc1F | inactive: 0.633%
O=C(O)c1ccc(NNC(=S)Nc2cc(C(F)(F)F)ccc2Cl)cc1 | inactive: 2.15%
CC(=O)Nc1ccc(/C(C)=N/NS(=O)(=O)c2ccccc2)cc1 | inactive: 14.5%
O=C(Nc1ccc(C(=O)N2CCOCC2)cc1)c1cccc([N+](=O)[O-])c1 | inactive: -19.7%
COc1ccc(-c2nc(CNS(=O)(=O)c3ccccc3)cs2)cc1 | inactive: 0.869%
O=C(Nc1cccc(Cl)c1Cl)c1ccccc1OCC(=O)N1CCOCC1 | inactive: 6.52%
O=S(=O)(NC1CCCCC1)c1cccs1 | inactive: 5.97%
C=C(C)C1CC=C(C)/C(=N/NC(=O)C2CC2c2ccccc2)C1 (configuration not stated) | inactive: -10.3%
COC(=O)C1CCN(CC(=O)Nc2ccccc2Sc2ccccc2)CC1 | inactive: 8.85%
CCCC(=O)N(c1ccc2oc(C)c(C(C)=O)c2c1)S(=O)(=O)c1ccc(C(=O)O)cc1 | inactive: -7.37%
O=C(COc1ccc(Br)cc1)NCCCNC(=O)c1cnccn1 | inactive: 0.494%
O=C(Nc1ccccn1)c1csc2c1CCCC2 | inactive: 34.4%
CCOC(=O)C1CCN(C(=O)CCc2c(C)nc3cc(-c4ccc(OC)cc4OC)nn3c2C)CC1 | inactive: 9.39%
COc1ccccc1C(=O)NCCCNC(=O)c1cccnc1 | inactive: -14.6%
O=C(c1ccc(-c2ccccc2)cc1)C1CCCN(Cc2ccncc2)C1 (configuration not stated) | inactive: 11.2%
O=C(OCC(=O)N1CCc2ccccc2C1)c1ccc(F)cc1Cl | inactive: 2.45%
COc1ccc(NC(=O)Nc2cccnc2)c(OC)c1 | inactive: -0.628%
COc1ccc(NC(=O)NCCc2ccc(Cl)cc2)cc1OC | inactive: 2.36%
O=C1NCCN(Cc2ccoc2)C1CC(=O)N(Cc1ccccc1)CC1CCC1 (configuration not stated) | inactive: 0.389%
COC(=O)Cc1ccc(NC(=S)NCc2ccccc2OC)cc1 | inactive: -5.49%

SMILES | growth rescue (activation)
Cc1cc(C)n2c(nc3ccccc32)c1C(=O)NCc1ccccc1 | inactive: 15%
Cc1ccc(C(=O)NCC(=O)OCC(=O)c2ccc3c(c2)NC(=O)CO3)cc1 | inactive: 13.4%
CC1Cc2ccccc2N1CC(=O)Nc1ccc(S(N)(=O)=O)cc1 (configuration not stated) | inactive: -12.2%
O=C(Nc1ccc(Br)cc1F)c1ccncc1 | inactive: -1.04%
COc1cc(N(C(=O)Cc2cccs2)C(C(=O)NC2CCCCC2)c2cccc(OC)c2OC)ccc1-n1cnnn1 (configuration not stated) | inactive: 19.3%
Cc1c(N/C=C/C(=O)C(F)(F)F)c(=O)n(-c2ccccc2)n1C | inactive: -6.95%
Cn1c(CC(=O)Nc2ccccc2)nnc1SCC(=O)NC1CCCC1 | inactive: -15.4%
COc1ccc(CC(=O)OCC(=O)NCc2ccc(Cl)cc2)cc1 | inactive: 16.7%
CCc1nc2c(OCCOc3ccccc3)cccn2c1N(C)C(=O)c1cccs1 | inactive: -6.65%
CC1CCCCN1C(=O)CCn1c(=S)oc2ccccc21 (configuration not stated) | inactive: 21.2%
O=C(COc1ccccc1[N+](=O)[O-])OCC(=O)c1ccc(Br)s1 | inactive: 8.37%
O=C(COC(=O)c1cccc(S(=O)(=O)N2CCOCC2)c1)NCc1ccc2c(c1)OCO2 | inactive: 2.48%
COc1ccc(NC(=O)c2ccc(NS(=O)(=O)c3cccc4cccnc34)cc2)cc1 | inactive: -0.194%
CCCNC(=O)C1(C)CCN(C(=O)c2ccccc2OC)C1 (configuration not stated) | inactive: 0.915%
O=C(NCc1cccc(C(F)(F)F)c1)c1ccc2sc(COCCO)nc2c1 | inactive: 2.57%
CC(=O)c1ccc(OCC(=O)Nc2cccc(S(=O)(=O)N3CCCC3)c2)cc1 | inactive: -3.05%
N#Cc1cccc(NC(=O)CC2CCCC2)c1 | inactive: 23.7%
O=C(OCc1ccc([N+](=O)[O-])cc1)C1CC(=O)N(Cc2ccccc2)C1 (configuration not stated) | inactive: 21.2%
COc1ccc2[nH]c(=O)c(CNc3ccc(C)c(C)c3)cc2c1 | inactive: -0.0204%
COc1ccc(N(C(=O)c2csnn2)C(C(=O)NC2CCCC2)c2cccs2)cc1 (configuration not stated) | inactive: 12.9%
CC(=O)c1ccc(OCC(=O)c2ccc(-c3ccccc3)cc2)cc1 | inactive: 28.4%
CCC1CCCCN1CCN1C(=O)C2C(C(=O)Nc3cccc(OC)c3)C3C=CC2(O3)C1C(=O)NC1CCCCC1 (configuration not stated) | inactive: 11.5%

SMILES | growth rescue (activation)
CNC(=O)c1cc(Nc2nnc(-c3ccc(O)cc3)c3ccccc23)ccc1OC | inactive: 5.94%
Cn1c2ccccc2c2nnc(SCC(=O)NC3CC3)nc21 | inactive: 11.9%
Cc1ccccc1NC(=O)CSCCN1C(=O)c2ccccc2C1=O | inactive: 14.8%
Cc1ccc(C(=O)NC(NCc2ccco2)C(Cl)(Cl)Cl)cc1 (configuration not stated) | inactive: 23.3%
CC(C)NC(=O)c1ccc(-c2cccc(C(F)(F)F)c2)o1 | inactive: 34.6%
Cc1ccc(S(=O)(=O)N2CCCCC2)cc1NC(=O)c1cc(F)c(F)c(F)c1F | inactive: 25.2%
O=C(Nc1ccc(S(=O)(=O)N2CCCCC2)cc1)C1CC(=O)N(c2ccc(F)cc2)C1 (configuration not stated) | inactive: -0.0181%
COc1ccc(C(=O)Cn2c(NCCO)nc3ccccc32)cc1 | inactive: -12.1%
COc1ccc([N+](=O)[O-])cc1N(CC(=O)NCc1ccco1)S(C)(=O)=O | inactive: -9.45%
COc1ccccc1C(=O)N/C(=C\c1ccccc1)C(=O)NC(Cc1ccccc1)C(=O)O (configuration not stated) | inactive: 10.6%
O=C(NC1CC1)C1CC(=O)N(c2ccc(F)cc2)C1 (configuration not stated) | inactive: 8.34%
CC(=O)c1ccc(N2CCN(S(=O)(=O)c3ccc4c(c3)CC(C)N4C(C)=O)CC2)cc1 (configuration not stated) | inactive: -4.1%
CCN(CC(=O)Nc1sc2c(c1C#N)CCC(C)C2)Cc1nc2ccccc2c(=O)[nH]1 (configuration not stated) | inactive: 10.8%
Cc1cc(C)n(-c2nc3c(c(=O)n(C)c(=O)n3C)n2C)n1 | inactive: -7.29%
COC(=O)c1ccccc1NC(=O)C1CCCO1 (configuration not stated) | inactive: 9.61%
CCOc1ccc2nc(N3C(=O)CNC3=S)sc2c1 | inactive: -8.79%
Cn1c(C(=O)N2CCN(c3ccc([N+](=O)[O-])cc3)CC2)cc2c(=O)[nH]c3ccccc3c21 | inactive: -13.2%
CC(C)(C)c1ccc(CC(=O)N2CCC2(C)C(=O)NS(=O)(=O)c2ccccc2Cl)cc1 (configuration not stated) | inactive: 7.11%
O=C(O)c1cc(Cl)c(Cl)cc1C(=O)Nc1cccc2ncccc12 | inactive: 5.44%
Oc1ccc(Br)cc1/C=N/NC(=S)NCCc1ccccc1 | inactive: -0.0678%
COC(=O)c1ccc(NC(=O)Nc2ccc(OC)cc2)cc1 | inactive: 20.6%
N#CCCN(C(=S)NC(=O)C1CCCCC1)c1ccccc1F | inactive: 0.676%

SMILES | growth rescue (activation)
Cc1nnc(SCC(=O)Nc2ccc([N+](=O)[O-])cc2)n1CC1CCCO1 (configuration not stated) | inactive: 0.0871%
Cc1oc(-c2ccoc2)nc1CN(CC1CCC(=O)N1)C(C)C (configuration not stated) | inactive: 10.1%
CCC(C)c1ccccc1NC(=O)COC(=O)c1ccc(N2CCCC2)c([N+](=O)[O-])c1 (configuration not stated) | inactive: 9.4%
Cc1nc(SCc2ccc(O)c([N+](=O)[O-])c2)n[nH]1 | inactive: 5.62%
CCOC(=O)Cc1csc(NC(=O)CSc2nc(-c3ccccc3)c(C#N)c(=O)[nH]2)n1 | inactive: 8.83%
CCOC(=O)C1(C(F)(F)F)N=C(C(F)(F)F)Nc2ccc(F)cc21 (configuration not stated) | inactive: -8.68%
CC(=O)N(Cc1ccccc1)Cc1cn(CCC#N)nc1-c1cccc([N+](=O)[O-])c1 | inactive: 19%
CCCCNC(=O)N1CCN(c2ccccc2OC)CC1 | inactive: 10.4%
CC1(C(=O)NS(=O)(=O)c2cccc(OC(F)F)c2)CCN1C(=O)c1ccco1 (configuration not stated) | inactive: 15.4%
CC(=O)CNc1ccc(S(=O)(=O)N/N=C/c2ccccc2)cc1 | inactive: -8.8%
CC(C)(C)c1ccc(OCC(=O)NCCN2CCOCC2)cc1 | inactive: -3.79%
N#CC(c1ccccn1)c1ncc(C(F)(F)F)cc1Cl (configuration not stated) | inactive: 5.43%
Cc1cc(C)cc(NC(=O)C(=O)NCc2ccccn2)c1 | inactive: 6.43%
Cc1[nH][nH]c(=O)c1C(c1ccc(-c2cccc(C(=O)O)c2)o1)c1c(C)[nH][nH]c1=O | inactive: -14.1%
O=C(NC1=NCCS1)C12CC3CC(CC(C3)C1)C2 | inactive: 13.3%
C=CCOc1ccccc1CN1CCCC(CCC(=O)N(C)CCc2ccccn2)C1 (configuration not stated) | inactive: 13.9%
COc1ccc(OCC2CCCN(Cc3nc(CC4CC4)no3)C2)cc1 (configuration not stated) | inactive: 16.9%
COc1ccc(CC(=O)Nc2ccc(S(=O)(=O)Nc3cc(OC)nc(OC)n3)cc2)cc1 | inactive: -1.26%
Cc1cccc(C(=O)NC(=S)Nc2ccccc2C(F)(F)F)c1 | inactive: 19.5%
Cc1cc(C(F)(F)F)n(-c2nc(C(=O)NNS(=O)(=O)c3ccccc3[N+](=O)[O-])cs2)n1 | inactive: 12.8%
Fc1ccc(C2Nc3cccc4cccc(c34)N2)cc1 | inactive: -11.5%
CC(=O)c1ccc2noc(-c3ccccc3)c2c1 | inactive: 18.9%

SMILES | growth rescue (activation)
CC(C)OC(=O)c1ccc(COC(=O)c2cccc(-c3nnc(-c4ccccc4)o3)c2)cc1 | inactive: -18.3%
O=C(COc1cccc(C(F)(F)F)c1)Nc1nnc(C2CC2)s1 | inactive: 1.42%
CN(C)S(=O)(=O)c1ccc2c(c1)nc(CCC(=O)NCc1ccc(Cl)cc1)n2C | inactive: -17.2%
Cc1ccc(C(=O)OCC(=O)c2ccc(CC(=O)N3CCOCC3)s2)c(C)c1 | inactive: 2.17%
COc1ccc(-c2noc(-c3ccoc3C)n2)cc1 | inactive: 9.29%
CCNC(=O)C1(C)CCCN(Cc2csc(-c3ccc(Cl)cc3)n2)C1 (configuration not stated) | inactive: 9.45%
CCOC(=O)Cn1c(=O)c2c(nc3n2CCN3c2ccc(CC)cc2)n(C)c1=O | inactive: 2.42%
COc1ccc(NC(=O)c2cc(-c3ccc(F)cc3OC)n[nH]2)c(OC)c1 | inactive: 4.68%
O=C(NCCCN1CCOCC1)c1cc2c(=O)[nH]c3ccccc3c2s1 | inactive: 0.449%
CCN(CC)c1ccc(NC(=O)CSc2nc(C3CC3)nc3ccccc23)cc1C | inactive: -3.76%
COc1ccc2[nH]c3c(=O)n4c(nc3c2c1)SCC4 | inactive: 17%
Cc1ccc(OCC(=O)NC2CC(C)(C)NC(C)(C)C2)cc1C | inactive: -1.92%
CCCOc1cccc(C(=O)N(Cc2ccc(C)o2)C2CCS(=O)(=O)C2)c1 (configuration not stated) | inactive: 1.2%
COCCNC(=S)Nc1cc(OC)c(NC(=O)c2ccco2)cc1OC | inactive: 5.64%
CCc1nc2ccccc2c(C(=O)OCC(=O)NC2CCCC2)c1C | inactive: 13.2%
O=C(CN1C(=O)NC(c2ccccc2)(c2ccccc2)C1=O)NCc1ccco1 | inactive: 15.2%
COCCn1c(N)c(N(Cc2ccccc2)C(=O)Cc2ccccc2F)c(=O)[nH]c1=O | inactive: -4.52%
Nn1c(SCC(=O)NCCCc2ccccc2)nnc1-c1cccnc1 | inactive: 32.9%
Cc1cccc(-n2c(C)cc(C(=O)NC3CCCCC3)c2C)c1 | inactive: 12.3%
